The text below walks through data of PubChem BioAssay AID463173 (ICCB-Longwood Screening Facility, Harvard Medical School, 2010).

Hit rate of the full screen: of about 52,000 compounds, about 1,700 (3.3%) were called active. Rule as the data show it: active = survival mostly below about 52% (no sharp cut-off); inactive = mostly above about 56%. The list shows a part of the results.

The assay concerns Wild type. Kind of assay: growth inhibition of S. aureus wild type versus tarO mutant, primary screen, teichoic acid synthesis inhibitors, RN4220, OD600 (AID 463173). The following applies: S. aureus RN4220 wild type/DeltatarO growth, OD600, 18 h, stronger effect = lower value, screened at 18.75 µg/mL (by protocol).
For `Cc1nc(SCC(=O)Nc2c(C)nn(C)c2C)c2cnn(-c3ccccc3)c2n1`, the survival is inactive: 120%.

Take `COc1ccc(NC(=O)CSc2ncccc2C(=O)O)cc1OC`: the survival was inactive: 78%. In the case of `Cc1ccc(C)c(Nc2ncnc3onc(C)c23)c1`, the survival was inactive: 71%. The value for `COc1ccc(NC(=O)CCSc2nc(-c3ccco3)cc(C(F)(F)F)n2)cc1` was inactive: 72%; that for `CCN(C(=O)c1cc2c(=O)oc3ccc(C)cc3c2s1)c1cc(OC)ccc1OC` was inactive: 89%. The value for `CCOc1ccc2[nH]c(=O)c(CN(CCOC)C(=O)NC3CCCCC3)cc2c1` was inactive: 102%; that for `CCN(CC)c1ccc(CN(C(=O)Cc2coc3ccc(C)cc23)C2CCS(=O)(=O)C2)cc1` (configuration not stated) was inactive: 90%; that for `CCOc1cccc(CC(=O)N2CCc3c([nH]c4ccccc34)C2c2ccccc2)c1OCC` (configuration not stated) was inactive: 81%. The value for `CCC1CCCCN1CCCNC(=O)c1ccc2c(c1)N(Cc1ccccc1)C(=O)c1ccccc1S2(=O)=O` (configuration not stated) was inactive: 139%; that for `CCn1nc(C)c2c(-c3ccccc3)cc(=O)n(C(C)C(=O)NCc3cccc(OC)c3)c21` (configuration not stated) was inactive: 72%; that for `Cc1ccc(-c2nc3scc(CCNS(=O)(=O)c4ccc(F)c(C)c4)n3n2)cc1` was inactive: 83%. Consider `CCc1ccc(NC(=O)c2cnn3c(C(F)F)cc(C)nc23)cc1`, for which the survival was inactive: 105%. For the compound `CCc1ccc(OCCCn2c(-c3ccc(Cl)cc3)nc3ccccc3c2=O)cc1`, the survival is inactive: 52%. Turning to `CCCN1C(=O)CSC1=Nc1ccccc1`, the survival is inactive: 101%. In the case of `Cc1ccc(OCC(=O)OCc2cc(=O)n3nc(C4CCCCC4)sc3n2)cc1C`, the survival is inactive: 79%.

As to `O=C1CC(c2ccccc2)Sc2nc(-c3ccc(F)cc3)nn21` (configuration not stated), the survival is inactive: 67%.

With `O=C(c1[nH]c2ccccc2c1Sc1ccc(Cl)cc1)N1CCCCC1`, the survival was inactive: 48%. The value for `CCC1CN(C(=O)N2CCC(C(=O)NCCc3ccccc3C)CC2)c2ccccc2O1` (configuration not stated) was inactive: 118%; that for `Cc1ccc(Cl)cc1NC(=O)CSc1ccc(C(=O)O)cn1` was inactive: 88%; that for `CCN(CC)c1ccc(NC(=O)c2cc(C)nc3c2c(C)nn3-c2cccc(F)c2)c(C)c1` was inactive: 73%.

On to `c1ccc(-c2nnc(CN3CCN(c4ccccn4)CC3)o2)cc1`, for which the survival was inactive: 79%.

`O=C(NCCSCc1cccc(Cl)c1)C1CCN(S(=O)(=O)Cc2ccccc2)CC1`: the survival was inactive: 80%. For the compound `CCN(Cc1ccccc1)Cc1c(O)ccc2c(=O)c(-c3ccccc3)c(C(F)(F)F)oc12`, the survival was inactive: 123%. Take `CCOc1ccccc1CNCc1c(C(=O)O)c(C)n(Cc2ccc(Cl)cc2)c1C`: the survival is inactive: 89%. The value for `COc1ccc(C(=O)Nc2cc(C(C)C)c(O)c(S(=O)(=O)c3ccc(Cl)cc3)c2C)cc1` was inactive: 72%; that for `COc1ccc2c(c1)cc1c(=O)n(CC(=O)NCc3ccco3)nc(C)n12` was inactive: 78%; that for `COc1ccccc1N(CC(=O)NCCSCc1ccccc1)S(C)(=O)=O` was inactive: 75%. Regarding `CCCCc1nn2c(=O)cc(COC(=O)c3cccc(OC)c3)nc2s1`, the survival is inactive: 127%.

Consider `CCc1nnc2c(Nc3cccc(C(C)=O)c3)nc3ccccc3n12`, for which the survival is inactive: 76%.

Take `CC(C)c1ccccc1NC(=O)c1cccs1`: the survival is inactive: 112%. With `COc1ccc(-c2cc(C(F)(F)F)nc(SCC(=O)NCc3ccc(OC)c(OC)c3)n2)cc1`, the survival was inactive: 97%.

For `CCOC(=O)c1ccc(NC(=O)C2CC(=O)NC(Nc3nc4ccccc4s3)=N2)cc1` (configuration not stated), the survival is inactive: 113%. For `COc1ccc(-c2onc(C)c2C)cc1S(=O)(=O)NCc1ccco1`, the survival is inactive: 63%. With `CCc1ccc(CNC(=O)c2ccc3c(c2)nc2n3CCC(C)C2)cc1` (configuration not stated), the survival is inactive: 127%.

Consider `COc1cccc(C(=O)Nc2cccc(OCc3cc(=O)n4cc(C)ccc4n3)c2)c1`, for which the survival was inactive: 90%. For the compound `CCOc1ccc(C(=O)NCc2ccc3c(c2)CCN3C(=O)c2ccccc2)cc1`, the survival was active: -4%. Turning to `COc1ccc(NC(=O)CN2C(=O)COc3ccc(S(=O)(=O)Nc4ccccc4)cc32)cc1`, the survival was inactive: 72%. In the case of `CCOC(=O)CN1C(=O)c2ccccc2Sc2ncccc21`, the survival was inactive: 75%. For the compound `Cc1nc2ccc(NC(=O)NCCCO)cc2s1`, the survival was inactive: 111%. The value for `CCCCc1nn2c(=O)cc(COC(=O)COc3ccc(C)cc3)nc2s1` was inactive: 75%.

Regarding `COc1ccc(C)cc1NC(=O)CN(c1ccccc1)S(=O)(=O)N(C)C`, the survival was inactive: 78%.

Turning to `CC1=C(C(=O)Nc2ccc(C)cc2C)C(c2ccc(O)cc2)n2nnnc2N1` (configuration not stated), the survival is inactive: 85%.

As for `COc1ccc(/C=C\c2onc(C)c2S(=O)(=O)N2CCC(C(=O)Nc3ccc(C)cc3C)CC2)cc1`, the survival is inactive: 76%. The value for `CCc1ccc(NC(=O)CSC2=Nc3ccccc3C3=NC(CCC(=O)NCCc4ccccc4)C(=O)N23)cc1` (configuration not stated) was inactive: 88%.

Consider `CCC12CN3CC(C)(CN(C1)C3c1c[nH]c3ccccc13)C2=O` (configuration not stated), for which the survival was inactive: 84%. For `CCC(=O)N1CCc2cc(S(=O)(=O)NC(CC(C)C)C(=O)Nc3cc(C)ccc3OC)ccc21` (configuration not stated), the survival is inactive: 78%. Consider `O=C(Nc1ccc(F)cc1Cl)n1ncc2cc(Cl)ccc21`, for which the survival is inactive: 26%.

`CCCOc1ccc(C(=O)Nc2cccc(NC(=O)c3cccc(Cl)c3)c2)cc1`: the survival was inactive: 73%. Turning to `O=C1C2C3c4ccccc4C(c4ccccc43)C2C(=O)N1C(CO)(CO)CO` (configuration not stated), the survival was inactive: 103%. `CCCCNC(=O)C1CCN(c2nc(OC)nc(OC)n2)CC1`: the survival was inactive: 100%.

As for `CCS(=O)(=O)c1ncc(N(Cc2ccco2)Cc2sccc2C)c(C(=O)Nc2ccc(C)cc2C)n1`, the survival is inactive: 89%. `CCCNC(=O)CCNS(=O)(=O)c1ccc2c(c1)c(=O)n(C)c(=O)n2C`: the survival is inactive: 89%. `CC1(C)CC(NCC(=O)NC2CC(C)(C)NC(C)(C)C2)CC(C)(C)N1`: the survival was inactive: 113%. In the case of `CCC(=O)N1CCc2cc(S(=O)(=O)NCCC(=O)Nc3ccc(C)cc3)ccc21`, the survival was inactive: 75%.

In the case of `CC(=O)c1cccc(Nc2ccc3cc(S(=O)(=O)N4CCC(C)CC4)ccc3n2)c1`, the survival was inactive: 69%. As for `O=C(COc1ccccc1-c1nnc(-c2ccccc2)o1)Nc1ccc(Br)cc1F`, the survival was inactive: 91%.

Take `Cc1ccc(CNC(=O)CCc2c(C)nc3nc(CNC(=O)OC(C)(C)C)nn3c2C)cc1`: the survival was inactive: 84%.
